Reference: patent US20230192795A1 (Hoffmann-La Roche, published 2023)

Molecular target: T1, Human IL7Ra-IL2Rγ-Fc heterodimer (human, biotin on the avi tag)
T1 construct: Extracellular domains of IL-7Ralpha and IL-2Rgamma fused to Fc knob and Fc hole; also called hu IL7Ra-IL2Rγ-Fc avi biotin; human IL7Ra-IL2Rg-Fc biotin
Test: SPR, captured from supernatant, 800 nM receptor-Fc single injection
Description: Surface Plasmon Resonacne (SPR) experiments were performed on a Biacore T200 with HBS-EP+ as running buffer (0.01 M HEPES pH 7.4, 0.15 M NaCl, 0.005% Surfactant P20 (BR-1006-69, GE Healthcare)). Fc specific antibodies (Roche internal) were directly immobilized by amine coupling on a CM5 chip (GE Healthcare). The PDI-IL7 constructs were captured from supernatants for 120 s at 100 nM. […] Only the extracellular domains were fused to Fc domains, produced in HEK Expi Cells and purified by two-step column chromatography including affinity purification via Protein A followed by size-exclusion chromatography. A single injection of 800 nM hu IL 7Ra-IL2Rγ-Fc heterodimer was passed over the ligand at 30 µ1/min for 240 sec to record the association phase. The dissociation phase was monitored for 360 s and triggered by switching from the sample solution to HBS-EP+. The chip surface was regenerated after every cycle using one injection of 10 mM glycine pH 2 for 60 sec. Bulk refractive index differences were corrected for by subtracting the response obtained on the reference flow cell 1. The response units after the capture step and at the end of the association phase were recorded and a ratio of binding to capture was calculated. The single binding curves were fitted in the dissociation phase to obtain a koff for ease of comparison (Biacore Evaluation software, GE Healthcare).
The ratio of binding to capture was calculated and the dissociation phase was fitted to a single curve to support characterization of the off-rate. All N-glycosylation knock-out variants (single and triple mutants) have an off-rate similar to wild-type IL7 (Table 13).

koff: 0.000446 s⁻¹
B1: PD1-IL7wt (other)
light: DIVMTQSPDSLAVSLGERATINCKASESVDTSDNSFIHWYQQKPGQSPKLLIYRSSTLESGVPDRFSGSGSGTDFTLTISSLQAEDVAVYYCQQNYDVPWTFGQGTKVEIKRTVAAPSVFIFPPSDEQLKSGTASVVCLLNNFYPREAKVQWKVDNALQSGNSQESVTEQDSKDSTYSLSSTLTLSKADYEKHKVYACEVTHQGLSSPVTKSFNRGEC
heavy 1: EVQLLESGGGLVQPGGSLRLSCAASGFSFSSYTMSWVRQAPGKGLEWVATISGGGRDIYYPDSVKGRFTISRDNSKNTLYLQMNSLRAEDTAVYYCVLLTGRVYFALDSWGQGTLVTVSSASTKGPSVFPLAPSSKSTSGGTAALGCLVKDYFPEPVTVSWNSGALTSGVHTFPAVLQSSGLYSLSSVVTVPSSSLGTQTYICNVNHKPSNTKVDKKVEPKSCDKTHTCPPCPAPEAAGGPSVFLFPPKPKDTLMISRTPEVTCVVVDVSHEDPEVKFNWYVDGVEVHNAKTKPREEQYNSTYRVVSVLTVLHQDWLNGKEYKCKVSNKALGAPIEKTISKAKGQPREPQVCTLPPSRDELTKNQVSLSCAVKGFYPSDIAVEWESNGQPENNYKTTPPVLDSDGSFFLVSKLTVDKSRWQQGNVFSCSVMHEALHNHYTQKSLSLSPGK
heavy 2: EVQLLESGGGLVQPGGSLRLSCAASGFSFSSYTMSWVRQAPGKGLEWVATISGGGRDIYYPDSVKGRFTISRDNSKNTLYLQMNSLRAEDTAVYYCVLLTGRVYFALDSWGQGTLVTVSSASTKGPSVFPLAPSSKSTSGGTAALGCLVKDYFPEPVTVSWNSGALTSGVHTFPAVLQSSGLYSLSSVVTVPSSSLGTQTYICNVNHKPSNTKVDKKV[human IgG1 Fc with changes left out]GGGGSGGGGSGGGGSDCDIEGKDGKQYESVLMVSIDQLLDSMKEIGSNCLNNEFNFFKRHICDANKEGMFLFRAARKLRQFLKMNSTGDFDLHLLKVSEGTTILLNCTGQVKGRKPAALGEAQPTKSLEENKSLKEQKKLNDLCFLKRLLQEIKTCWNKILMGTKEH
notes: also called PDI-IL7wt; PD1-ILwt
